Assay results taken from the supplement of paper PMC11417369.
The other results are listed elsewhere or left out.

These sequences were tested on PfHDP1 homeodomain (GST-tagged) (assay: gcPBM binding intensity (ln(normalized median fluorescence intensity)); higher = stronger DNA binding).
In short: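 Binding intensity is defined as the maximum Masliner-normalised natural-log median intensity across replicate spots for either probe orientation. It was measured on an Agilent 4 × 180k array of primer-extended double-stranded 36-bp intergenic genomic probes and negative controls, to which GST-tagged P. falciparum DNA-binding domains made in E. coli were applied for 1 h in 1× PBS with 1% milk, 0.2 mg/ml BSA, 0.5% salmon testes DNA and 0.03% Triton X-100. Detection was by Alexa488 anti-GST antibody and scanning at 488 nm.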

Sequence | gcPBM binding intensity (ln)
TTATTTTGATCTGGTTGTACATATAATATATAGTGG [XGTACX_site357] | 7.31
TCTTGTTCGCCCTATTGTACAAACATATATTGTGAT [XGTACX_site2884] | 7.27
ATACATTCAAAATATACACACATATATCTATAATAT [CACACA_site6576] | 6.7
TTTCTTTAGTAGAATGTAAAAAATATAATCTTCTTA [TGCATGCA_negctrl_site298] | 5.5
TATTTTGAAATGGAAAGGATATAGAACTTAAACAAA [CACACA_negctrl_site1530] | 6.49
AACATACGACAATACGCACACATATAAGTACATATT [CACACA_site8584] | 7.45
TTTATAAAAAGCATAACACACACATGTCAATATATA [CACACA_site8286] | 6.67
TTCATAAAAAATGTAGTGCATTGAATAAAATTACAT [GTGCAC_site9393] | 8
TTTTATATCTACCTTTGTACATATTTATTTTTTTTA [XGTACX_site7872] | 6.89
ATATTGAAATTAAAAAAATATATGAACAAATGATGA [CACACA_negctrl_site602] | 6.48
TTAATTTTGGTAAATGCATGTAATTAAAAATAAAAA [TGCATGCA_site234] | 6.61
TAAATTTTTTTTTTTTGTACACAAAAATATAATATT [XGTACX_site8151] | 6
TTATGTAGTATAATGAGTACTAAATATAGATATGTT [XGTACX_site6335] | 6.56
AATTACTTAAATTATTGTACCCTAATGTTAATTTCA [XGTACX_site825] | 6.44
AATATTATAAATGATACACACTTAAAATACAGACAC [CACACA_site8868] | 6.77
TATAAATATGTGTATACACACCTGATAAAGGTATAT [CACACA_site7283] | 7.41
ATATATATATATATATGTACATATACACATGTGTGC [XGTACX_site168] | 9.56
AAATAAATAATAAATAAATAAATAAAATACCAAATA [GTGCAC_negctrl_site620] | 6.48
AAAATTATTAAATATGTACACACGTACATTTTATAA [CACACA_site8750] | 6.1
TTCAATTATATTCTTTGTACGAATCTTCTATAAATT [XGTACX_site4346] | 6.61
GCTTATGCTCAATATTGTACTTTTTTTATTTATTCA [XGTACX_site8863] | 10.6
TACTTCTTTTTTATTTATTTTACTTTTTATTCTGTA [CACACA_negctrl_site772] | 6.61

Sequence | gcPBM binding intensity (ln)
ATTTAATTTTTTTTTAAACACACATTTTTTTATTTA [CACACA_site8880] | 6.43
TGGCTTATTCAGAAATGTACACATATAAATATATAT [XGTACX_site3765] | 6.29
TGAATAAATAAGATACGTACACACATATACAAAATA [XGTACX_site7758] | 6.79
AAAATAATATATGTATGTACACAATTATTTATAAGT [XGTACX_site7267] | 6.46
TTTCTTTTAATTATCCGTACACAAACAATAAAATAA [XGTACX_site7841] | 6.7
TACATAAACATTTATACACACATTATATATACATAT [CACACA_site8028] | 6.89
TGTGCTCGCTATTACACACTCATTGGGATAAAATTG [CACACA_site2029] | 7.48
TACAGACATAGACACACACACACGCATAAAAAAAAA [CACACA_site6820] | 6.83
TTATAAATTCAATGTACTACACAAAATGAATTTAAT [XGTACX_site6683] | 6.23
ATATAAGTACGGCATGCATGCACATTTTTTTATTCC [TGCATGCA_site101] | 7.81
TTCCTATAAAAAAACACACACATATAAATATAAATA [CACACA_site7154] | 6.83
AAAAAAAAAAAAAACACACACACACGCAAATACATA [CACACA_site6474] | 6.86
TCCTTAAATATAAAGGTGCTATGCAGACCTTATGTT [GTGCAC_site9472] | 5.98
GTCATCATAATCTATTGTACAAAAATTTATACAGAT [XGTACX_site1059] | 6.74
ATAAATACATTAAAATGTACATAAAAATATTACTGG [XGTACX_site1484] | 6.47
TATAAAAATAAGTATACACACAAAATGCGTAACTTT [CACACA_site1295] | 6.15
TACATTAAACGAATAGTGCAAGAAGTATTCGTATAA [GTGCAC_site9939] | 7.39
TAATACTTAAAATGTTGTACATAATAATTTTATATT [XGTACX_site5403] | 6.09
CATATGCGTCTTGCCTTGCACACTTTTATGAAAAAA [CACACA_site2055] | 8.57
TATAACAAGTAATGGTGTACATTATATTATGTAATA [XGTACX_site2761] | 6.35
TATATATATATATATACATGCATTTCTCATGTACAT [TGCATGCA_site621] | 9.46
TAGTTGTGAGTTACATGTACATGTATTTATTTTTTA [XGTACX_site7088] | 6.82

Sequence | gcPBM binding intensity (ln)
AATGTATAAAAGTTTTGTACATATTCTCACACATAT [XGTACX_site965] | 6.47
ATATACCATATGCATGGTACACATTTACAACAAAAA [XGTACX_site3142] | 6.37
ATAACGTAAACAATGTGGACACATACATAAATATAT [XGTACX_site707] | 6.63
GATAACAATATGTGTACACATTTATATCTCCACATA [CACACA_site5442] | 7.24
TTTATTAAATAAAGCACACACAACAACTTTTCACAA [CACACA_site4132] | 6.94
TTACAAAACCGATGTTGTACATTCAATAGATAATGT [XGTACX_site3806] | 6.15
AAAGAAAAAAATAATTGTACATTTATATTTAATTTA [XGTACX_site8003] | 6.2
TTTTTATTTATTAATACACACACACCCACCCACAAA [CACACA_site7965] | 8.62
TTTTTTTTTAAATAATGTACTTTTCATTATTTAGAT [XGTACX_site1706] | 6.13
AAAAAAAAATTAAAAACACACATATAAATAAATATA [CACACA_site6845] | 6.46
AACAAAATAGGGAACACACACATGTCAATATATAAA [CACACA_site2596] | 6.89
TGAACACGCACAAATACACACAAAAAAAATAAATAA [CACACA_site6257] | 7.4
CCATTAAGACACATTGCACACGTGCACCCATAGAAA [CACACA_site4388] | 10.2
CACATACACATACAAACACACATTAGATATAAATAT [CACACA_site6854] | 6.91
AAAAAAAATTAATAGGGTACATGAAAAGTGGAATAT [XGTACX_site618] | 7.23
ATAGAAGAAATATGCACACATACATTGAAATGTTTT [CACACA_site321] | 9.9
ATATATATTTTTATTTGTACATAATTTTTTTTGTGA [XGTACX_site6378] | 6.83
ATATATGTAATAAATAGTACACACACACATATATAT [XGTACX_site2817] | 7.35
TTTTTTTTTTTTTGCACACACATATATAGATATATA [CACACA_site7784] | 10.1
ATAAAATTGTTTAAATGTACATATGAACAGTCAGTA [XGTACX_site5140] | 6.67
ATAGTATAACAGCAATGTACACATATTTGTGTATAT [XGTACX_site7899] | 6.76
TATATATATAAACACACACACACATATATATATATT [CACACA_site8814] | 7.33

Sequence | gcPBM binding intensity (ln)
ATATATATTTAAATGTGTACTCATTTATTTTATGTC [XGTACX_site4984] | 6.66
TTTTTTTTTTTTGTCACACATATATTTGTATTTATA [CACACA_site5234] | 6.5
TGATATTTATAATAAATATTATAATAAAATCAAACA [XGTACX_negctrl_site219] | 6.01
TGAAAAATGTTGATGTGTACTTATATAGTGTGTTAA [XGTACX_site2100] | 6.6
TAATTTTATATATGCACACAAAATATGTTCATATAA [CACACA_site4076] | 10.4
TTTAACATAAATTAAACACACAATATAATACATTAA [CACACA_site1237] | 6.42
AAATTACTTTCACAGTGTACTTGGAAAAAAAAAAGA [XGTACX_site1046] | 6.47
CATTTTATCAAAAGTGGTACAACCCTTTCAAAAAAT [XGTACX_site341] | 5.93
TTTTTTTTTTTTTTTTGTACGTAATATATGATTAAT [XGTACX_site6876] | 6.32
AGATATAATAAATATACACACATATATATATATATA [CACACA_site962] | 9.35
AAAAAAATCACATAAAATACTTTATTTTATATTATA [GTGCAC_negctrl_site372] | 5.76
TATAAATATGTTCTTACACACACGAATATAAATATG [CACACA_site7537] | 6.58
TTACATAATATATGTACACACGCAAATACTTATAAT [CACACA_site7995] | 6.74
TATATTTCTTATTTCTTATTTTGTCATCACCTTTTT [CACACA_negctrl_site1115] | 6.46
TATTTATTTTTTTGCACACATATTTTACATTTTAAT [CACACA_site3181] | 10.8
TATATATATATATATACACACATATATATATTTATA [CACACA_site627] | 9.33
ATAACATTCATATTCACACAAAAATATACTACATAG [CACACA_site4529] | 6.8
TGTAGTCTGGAGAAACGTACATAGTATCTGGTAACC [XGTACX_site4939] | 6.32
ATAAAAAAAGGACACACACACATATATATATATATA [CACACA_site5662] | 9.46
ATATAAAAAGTGTATCGTACATTTACTTATTTTATA [XGTACX_site6249] | 6.27
ATTGAAAATTGTTGCACACATAATAATTAAATATAT [CACACA_site1857] | 9.56
CACACCCACAAAAACACACACAAAGGTGTTCTTATA [CACACA_site1293] | 6.61
